Measurements reported in PubChem BioAssay AID493208 (National Center for Advancing Translational Sciences (NCATS), 2011).
In all, about 44,000 compounds went through this assay and about 340 (0.77%) were called active. The inconclusive results got no clear call from the source; some entries with a clear call stand among them for comparison. The call rests on the fitted dose curve; in most records, active means well fitted inhibition curve with a large enough effect; inconclusive means small, poorly fitted or top-dose-only effect; inactive means flat fitted curve, though single readings scatter. No potency is given beside an inconclusive call; the fits are too rough.

test: Acumen qHTS Assay for Inhibitors of the mTORC1 Signaling Pathway in MEF (Tsc2-/-, p53-/-) Cells: Sytravon; conditions: phospho-rpS6 immunofluorescence/PI, 24 h; series mostly up to 38.3 µM; activity change, negative = inhibition: at the top concentration; further: nearly all actives have a fitted effect of over 50% in size;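 on activity change, negative = inhibition: plate controls were DMSO for no effect and rapamycin for full effect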
Procedure, shortened: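 Plate MEFs (Tsc2-/-, p53-/-, empty vector) in DMEM/10% FBS; after 24 h add compound, incubate 24 h at 37 degree Celsius; fix in PFA/TX-100, block, stain phospho-rpS6 and 10 uM PI; scan at 488 nm; report % positive cells.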
Potency means the concentration at half of the fitted maximal effect; tags describe the fitted curve by direction and shape.

SMILES | Potency | activity change, negative = inhibition
Nc1cc(=O)nc(SCC(=O)Nc2ccc(F)cc2)n1-c1ccc(Cl)cc1 | inconclusive [falling, full curve, poor fit] | 
Cc1cccc(NC(=O)Cn2c(=O)oc3cc(S(=O)(=O)NCc4ccccc4)ccc32)c1 |  | inactive: 0.425%
CCN1CCC(N(Cc2ccc(F)cc2)C(=O)Nc2cccc(C(F)(F)F)c2)CC1 | inconclusive [falling, single point] | 
Cc1cccc(C(=O)N(Cc2ccco2)Cc2ccccc2F)c1 |  | inactive: -0.787%
CCOc1ccc(CNC(=O)C2CCN(S(=O)(=O)c3ccc4c(ccn4C)c3)CC2)cc1 | inconclusive [falling, single point] | 
Cc1c(Cl)cccc1NC(=O)c1cc2sccc2n1Cc1ccc(F)cc1 |  | inactive: -4.35%
COc1ccc(OCCn2cc(C(=O)c3ccco3)c3ccccc32)cc1 | inconclusive [falling, partial curve, poor fit] | 
CC(C)c1ccc(NC(=O)CSC2=Nc3ccccc3C3=NC(CCC(=O)NCc4ccc(F)cc4)C(=O)N23)cc1 (stereo unspecified) | inconclusive [falling, single point] | 
O=c1c(-c2cc(-c3ccc(F)cc3)nc3c2COc2ccc(Cl)cc2-3)coc2ccc(F)cc12 | inconclusive [falling, full curve, poor fit] | 
CN(Cc1ccccc1)C(=O)Cn1c(=O)c2cccn2c2ccc(F)cc21 | inconclusive [falling, partial curve, poor fit] | 
CCOc1ccc(NC(=O)Cn2c(=O)cc(C)c3c(C)nn(C)c32)cc1 | inconclusive [falling, single point] | 
COc1cc(CNCCSc2nnnn2C)ccc1OCc1ccccc1C | inconclusive [falling, partial curve, poor fit] | 
CCOc1ccc(C(=O)Nc2ccc3oc(-c4cccc5ccccc45)nc3c2)cc1 | inconclusive [falling, single point] | 
COc1ccc(C(=O)Nc2nc(-c3nnn(-c4ccc(F)cc4F)c3C)ns2)cc1 | inconclusive [falling, single point] | 
COc1cccc(C(=O)Nc2ccc3nc4n(c(=O)c3c2)CCCCC4)c1 |  | inactive: -1.75%
CC1CCN(c2csc3ccc(F)cc3c2=O)CC1 | inconclusive [falling, single point] | 
CCCN1CCN(CCCNC(=O)c2ccc3c(c2)sc2nc(-c4ccc(OCC)cc4)cn23)CC1 | inconclusive [falling, full curve] | 
Cc1cccc(NC(=O)Cn2c(C(F)(F)F)nc3ccccc32)c1C | inconclusive [falling, partial curve, poor fit] | 
Cc1ccc(-c2cc(C(=O)N3CCN(c4ccccc4)CC3)c3ccccc3n2)cc1C | inconclusive [falling, partial curve] | 
CCOc1ccc(C2C(C(=O)Nc3ccc(Cl)cc3)=C(C)Nc3nc(C(F)(F)F)nn32)cc1 (stereo unspecified) | active: 5.85 µM | 
Cc1cccc(C(=O)Nc2nc(-c3nnn(-c4cc(F)ccc4F)c3C)ns2)c1 | inconclusive [falling, single point] | 

SMILES | Potency | activity change, negative = inhibition
COc1ccc(CNC(=O)C2CCC(CNS(=O)(=O)c3cccs3)CC2)cc1 (stereo unspecified) | inconclusive [falling, partial curve, poor fit] | 
Cc1ccc(-c2nc(S(=O)(=O)c3ccc(C)cc3)c(N3CCCCCC3)o2)cc1 | inconclusive [falling, partial curve, poor fit] | 
CC(C)OCc1cc(CN2CCN(c3ccccc3)CC2)c(O)c2ncccc12 | inconclusive [falling, full curve, poor fit] | 
O=C(Nc1ccc2oc(-c3cccc(Cl)c3Cl)nc2c1)c1cccc(Br)c1 | inconclusive [falling, single point] | 
CC(=O)c1c(C)oc2ccc(N(C(=O)c3ccncc3)S(=O)(=O)c3ccc(C)cc3C)cc12 |  | inactive: -6.66%
CCOc1cc(CNCCSc2nnnn2-c2ccccc2)ccc1OC | inconclusive [falling, partial curve, poor fit] | 
Cc1cc(=O)n2nc(N3CCC(C(=O)Nc4ccc(Br)cc4F)CC3)sc2n1 |  | inactive: -17.5%
CCc1ccc(-n2c(CCC(=O)O)ccc2-c2ccc(F)cc2)cc1 |  | inactive: -1.63%
O=C(Nc1ccc(F)c(F)c1)C1CCCN1S(=O)(=O)c1cccc2nsnc12 (stereo unspecified) |  | inactive: 2.75%
CCCCN1C(=O)C(O)(c2c(C)[nH]c3ccccc23)c2ccccc21 (stereo unspecified) | inconclusive [falling, single point] | 
O=S(=O)(c1ccccc1)c1nc(-c2ccc(F)cc2)oc1N1CCCCCC1 |  | inactive: 2.45%
COc1cc(NC(=O)CCCSc2nc(-c3ccco3)cc(C(F)(F)F)n2)cc(OC)c1OC |  | inactive: -0.413%
COc1ccccc1NC(=O)C1=C(C)Nc2ncnn2C1c1ccc[nH]1 (stereo unspecified) | inconclusive [falling, single point] | 
Cc1ccccc1C(=O)Nc1ccccc1C(=O)OCc1cc(=O)n2nc(C3CC3)sc2n1 | inconclusive [activator, single point] | 
COC(=O)c1c(NC(=O)c2ccc(S(=O)(=O)N3CCCCC3)cc2)sc2c1CCN(C)C2 | active: 4.14 µM | 
COc1ccc(CCNC(=O)CCCn2c(=O)c3ccccc3n(CC(=O)Nc3c(C)cc(C)cc3C)c2=O)cc1OC | inconclusive [falling, single point] | 
Cc1ccc(-n2c(SCc3nc(-c4ccccc4C)no3)nnc2-c2ccncc2)cc1C | inconclusive [falling, single point] | 
COc1ccc(NC(=O)c2c(C)oc3ccc(O)c(CN4CCCC(C)C4)c23)cc1Cl (stereo unspecified) | inconclusive [falling, single point] | 
CCS(=O)(=O)c1ncc(Cl)c(C(=O)N(Cc2ccccc2)Cc2ccco2)n1 | active: 3.29 µM | 
N#Cc1c(C(F)(F)F)cc(-c2cccs2)nc1SCC(=O)Nc1ccc(Cl)cc1 | inconclusive [falling, single point] | 
